Our source for the binding signal values is article PMC6212790.

Some of the results follow. At the low end of the ranking the order means little.

This assay addresses T1, GST-Rok-C97-191 (UniProt O34857).
T1 sequence: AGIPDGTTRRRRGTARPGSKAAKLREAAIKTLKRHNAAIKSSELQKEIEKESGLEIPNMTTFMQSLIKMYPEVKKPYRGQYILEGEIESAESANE
In words: protein binding microarray.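 Note: rank score from −0.5 (least bound) to 0.5 (best bound).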 The note with it: Rok is a gene silencer of Bacillus subtilis; high values mean tight binding; most listed sequences are background and not binding sites; double strand, one strand shown.
The sequence AATTGCGG had a binding signal of 0.0377 E-score.

Take CAAGAAGG: the binding signal is -0.193 E-score.

ACCGTATG had a binding signal of 0.0299 E-score.

On to CAGGAAGC, for which the binding signal is -0.162 E-score.

The sequence ACGGCGCT gave a binding signal of -0.18 E-score.

GGTGCTAA: the binding signal is -0.249 E-score.

Turning to CGCTCACG, the binding signal is -0.284 E-score.

ACCACAGT had a binding signal of 0.0254 E-score.

TTACGCAA: the binding signal turned out to be 0.0483 E-score.

On to ACTGTTAA, for which the binding signal was 0.114 E-score.

The sequence TACCCGTA gave a binding signal of 0.0307 E-score.

For the sequence AAGTCGAG, the binding signal was -0.138 E-score.

For ACGATAAG, the binding signal stood at 0.173 E-score.

ATGATCAG showed a binding signal of 0.117 E-score.

Consider AATTTGCC, for which the binding signal was 0.0991 E-score.

Regarding GGAAGCGA, the binding signal is -0.0973 E-score.

Consider AGATGAGG, for which the binding signal is -0.119 E-score.

For ACTCAACT, the binding signal amounted to 0.0515 E-score.

Regarding AATCCAGC, the binding signal was -0.0135 E-score.

The sequence TCGGGGAA returned a binding signal of -0.165 E-score.

Sequence AACACACG displayed a binding signal of -0.0535 E-score.

Consider AACGAAGG, for which the binding signal is -0.132 E-score.

ACGCCTGG showed a binding signal of -0.228 E-score.

AACTCCTG displayed a binding signal of -0.0788 E-score.

Regarding AGCTGCCA, the binding signal is -0.0119 E-score.

The sequence CTCCCACC returned a binding signal of -0.233 E-score.

As for CTAGCAAC, the binding signal came out at 0.222 E-score.

AGTACCCG registered a binding signal of -0.0244 E-score.

Regarding ACAAGCAG, the binding signal was -0.0955 E-score.

The sequence CGGAAACG returned a binding signal of -0.196 E-score.

For GGCAGTAC, the binding signal was -0.0613 E-score.

Consider CAAACTAC, for which the binding signal was 0.446 E-score.

Regarding CGAGAGCC, the binding signal is -0.299 E-score.

GGACCGGA returned a binding signal of -0.125 E-score.

Consider GAGCCATA, for which the binding signal was -0.121 E-score.

With AAGGTCCC, the binding signal is -0.368 E-score.

CCATTCAG yielded a binding signal of -0.0929 E-score.

For CTGATTTA, the binding signal was determined as 0.00411 E-score.

For GCCCACAC, the binding signal is -0.12 E-score.

TCCGCAAA yielded a binding signal of -0.216 E-score.

GCCAGTAC: the binding signal is -0.0877 E-score.

AGAGATCC registered a binding signal of -0.0984 E-score.

For AAAGTCAG, the binding signal was -0.033 E-score.

For the sequence CGGTTTAA, the binding signal was 0.00113 E-score.

GCTTCAAC returned a binding signal of 0.0139 E-score.

The sequence AACAGGGT showed a binding signal of 0.0781 E-score.

Turning to CCTTGATA, the binding signal was determined as 0.0226 E-score.

With CCGATCAG, the binding signal is -0.0114 E-score.

Regarding TTGGCCAA, the binding signal was -0.309 E-score.

In turn, CGCTGTGC had a binding signal of -0.189 E-score.

The sequence AGCCTGGG displayed a binding signal of -0.0869 E-score.

In turn, CTGGTTTC displayed a binding signal of -0.12 E-score.

GGTACTGA: the binding signal is -0.0797 E-score.

GTCATAAC: the binding signal was -0.251 E-score.

GTTGTCGA had a binding signal of 0.0565 E-score.

For TAGCACAA, the binding signal came to 0.179 E-score.

For the sequence CTCACCGC, the binding signal is -0.109 E-score.

In the case of AATCCGTC, the binding signal is 0.0808 E-score.

In turn, ACGCCGAG came in with a binding signal of -0.211 E-score.

For AGTGCCAT, the binding signal was determined as 0.0196 E-score.

Consider AGACGTCA, for which the binding signal is 0.0181 E-score.

Sequence GAAAACGA registered a binding signal of -0.0582 E-score.

For ACAAAACT, the binding signal amounted to 0.105 E-score.

Take AAGCCAAT: the binding signal is -0.0313 E-score.

For GACGAGCC, the binding signal was -0.226 E-score.

In turn, AGACGGGG came in with a binding signal of -0.252 E-score.

Consider AGCAAATA, for which the binding signal is 0.207 E-score.

In turn, AGCGTCGG yielded a binding signal of -0.144 E-score.

On to AAAAATGC, for which the binding signal was 0.0184 E-score.

Take GCGAAGTA: the binding signal is 0.182 E-score.

CAGATATC had a binding signal of -0.00243 E-score.

For AGGGTATG, the binding signal is -0.182 E-score.

In turn, CCTAAGGA returned a binding signal of -0.0692 E-score.

On to ATCGCGCG, for which the binding signal worked out at 0.0721 E-score.

In turn, ACCCGCCT had a binding signal of -0.317 E-score.

Turning to AAAACCTA, the binding signal came out at 0.297 E-score.

In the case of TCGCTGCA, the binding signal was -0.111 E-score.

Regarding CCCGCCAA, the binding signal is -0.237 E-score.

GGGGAGGA showed a binding signal of -0.314 E-score.

Turning to AGGATGGA, the binding signal was -0.22 E-score.

Sequence ATTGCTCA showed a binding signal of 0.0529 E-score.

With CTCAAGAG, the binding signal was found to be 0.00759 E-score.

As for CCGCGTAC, the binding signal is 0.00133 E-score.

GACTCCCC registered a binding signal of -0.37 E-score.

For CCGATACC, the binding signal turned out to be 0.0851 E-score.

CGTACGGA registered a binding signal of -0.0542 E-score.

AGGCTGAG returned a binding signal of -0.207 E-score.

Regarding ACCGCACC, the binding signal was -0.266 E-score.

On to CTGCAGGA, for which the binding signal is -0.28 E-score.

CACTGAAA: the binding signal is -0.232 E-score.

For CGCGCAAC, the binding signal is -0.148 E-score.

Take GCAAGTCC: the binding signal was -0.225 E-score.

Consider GTGTGTTA, for which the binding signal amounted to 0.0623 E-score.

In turn, CGATTAAC returned a binding signal of -0.125 E-score.

Turning to CGGCCGGC, the binding signal was -0.249 E-score.

ACCCTTGA yielded a binding signal of -0.115 E-score.

Sequence ATTAGATG came in with a binding signal of 0.265 E-score.

Sequence ACCACATG showed a binding signal of 0.0265 E-score.

On to AAGGTGCG, for which the binding signal is -0.288 E-score.

In the case of ACCCGTAC, the binding signal was -0.125 E-score.

ACGACAGC had a binding signal of -0.172 E-score.

With AATCCGAG, the binding signal is 0.115 E-score.

On to ACATCACC, for which the binding signal was -0.123 E-score.

In the case of CGAGAGAG, the binding signal was -0.15 E-score.

Regarding GCTAACGA, the binding signal was 0.131 E-score.

With AAATAGGA, the binding signal was 0.152 E-score.

GGGAATTA: the binding signal is 0.135 E-score.

Regarding ACGCTAAT, the binding signal stood at 0.258 E-score.

ATGCCCTG showed a binding signal of -0.0941 E-score.

Turning to CCTCCATC, the binding signal is -0.129 E-score.

In turn, GATTAGGA came in with a binding signal of -0.051 E-score.

In the case of CCGGGGTC, the binding signal was -0.34 E-score.

For AGCATCCG, the binding signal is -0.119 E-score.

TACTAACA showed a binding signal of 0.177 E-score.

Sequence TCACACGA showed a binding signal of -0.105 E-score.

In the case of ACAGTTTA, the binding signal is -0.0129 E-score.

In the case of GTGCGGAA, the binding signal is -0.0499 E-score.

ATGGCAAG displayed a binding signal of 0.0535 E-score.

On to GACTCGTA, for which the binding signal was -0.148 E-score.

AAAAAAGC came in with a binding signal of 0.0176 E-score.

In turn, ATTGCACG gave a binding signal of 0.034 E-score.

Regarding CCTCGCAC, the binding signal is -0.215 E-score.

CTAATACC: the binding signal was 0.262 E-score.

In turn, CGCTTGGC displayed a binding signal of -0.145 E-score.

Consider ATGGGTGG, for which the binding signal is 0.156 E-score.

Turning to CATGAGCG, the binding signal was -0.135 E-score.

GGCTCACC displayed a binding signal of -0.33 E-score.

Sequence CTTACTCA registered a binding signal of -0.0129 E-score.

Sequence GTATGTTA had a binding signal of 0.173 E-score.

As for GGAAGGGA, the binding signal was -0.286 E-score.

As to CCGGGCGA, the binding signal was -0.304 E-score.

AATCGAAA displayed a binding signal of 0.0906 E-score.

CAAATAGG: the binding signal was -6.59e-05 E-score.

Sequence TTCCCGAA yielded a binding signal of -0.069 E-score.

As for GATTCTGC, the binding signal is 0.0425 E-score.

CGCACAGC had a binding signal of -0.196 E-score.

For the sequence CGGATACG, the binding signal is -0.0449 E-score.

As to AATAAGAG, the binding signal was determined as 0.0629 E-score.

In turn, AGTGTCCC had a binding signal of -0.247 E-score.

In the case of GGCAACAA, the binding signal is -0.0733 E-score.

As to ATTCCACG, the binding signal came out at 0.0233 E-score.

Regarding TAAGGACA, the binding signal was -0.213 E-score.

TAATGGCA returned a binding signal of 0.0693 E-score.

The sequence CGGGTATA yielded a binding signal of 0.155 E-score.

The sequence CATGTATA displayed a binding signal of 0.2 E-score.

On to ACGGGACG, for which the binding signal is -0.207 E-score.

In the case of AAATAAAA, the binding signal was found to be 0.258 E-score.

In turn, GTCGAACA showed a binding signal of 0.078 E-score.

For the sequence CATGGCTC, the binding signal was -0.124 E-score.

In turn, CCACAGAC gave a binding signal of -0.0166 E-score.

In the case of AATGCCGC, the binding signal came to 0.0234 E-score.

For CCCTAACA, the binding signal was -0.0545 E-score.

The sequence CACCCATC displayed a binding signal of -0.135 E-score.

Turning to AGCCTAAA, the binding signal is -0.129 E-score.

For CAGAAAGA, the binding signal is -0.0578 E-score.

The sequence CCCTACTC yielded a binding signal of -0.269 E-score.

In turn, CCAGACGG yielded a binding signal of 0.00887 E-score.

For the sequence ATGGACTC, the binding signal was -0.115 E-score.

Turning to GAGATTCA, the binding signal stood at 0.0314 E-score.

On to AAGGCATC, for which the binding signal was 0.128 E-score.

The sequence CGACCCAG yielded a binding signal of -0.0762 E-score.

CGTGAGAA: the binding signal is 0.177 E-score.

Regarding CAATTGAG, the binding signal turned out to be 0.0246 E-score.

With TAGAATGA, the binding signal is 0.246 E-score.

In turn, ACTCCCTA showed a binding signal of -0.269 E-score.

In turn, GTTACGAA gave a binding signal of -0.151 E-score.

Consider CGTCATTC, for which the binding signal is 0.164 E-score.

On to CGCCACAG, for which the binding signal was -0.229 E-score.

TAGTGTGA had a binding signal of 0.0421 E-score.

With AAAGTCAA, the binding signal is -0.0778 E-score.

For the sequence AACACATG, the binding signal stood at 0.0194 E-score.

ACCAATAC came in with a binding signal of -0.0177 E-score.
